Source: the RNAGym collection of RNA variant scans (doi:10.1093/nar/gkz1192)
Read counts are not given, so values of variants with three or more changes are uncertain.

B1: CPEB3 Ribozyme (parent)
chain: UAACAGGGGGCCACAGCAGAAGCGUUCACGUCGCAGCCCCUGUCAGAUUCUGGUGAAUCUGCGAAUUCUGCUGUAUAUCUC

Variants of: B1
Experiment: self-cleavage, relative activity (ratio to wild type); higher = more cleavage; in vitro, sequencing
Procedure, shortened: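 Relative activity was defined as the cleaved/total read fraction for a variant divided by the same fraction for the unmutated ribozyme. CPEB3 self-cleaving ribozyme libraries were made by rounds of error-prone PCR, barcoded, and transcribed in vitro with T7 RNA polymerase for 5 hours at 37°C, and cleavage ran through transcription plus a 15 min DNase I step before EDTA. Illumina sequencing of template-switched reverse transcripts gave the reads, and DNA sequencing mapped the barcodes. Averages come from three batches, using variants with at least 5 reads.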
With UAACAGGGGGCCACAGCAGAAGCGUUCACGUCGCAGCCCCUGUCAGACUCUGGCGAAUCUGCGAACUCCGCUGUAUAUCUC [U48C U54C U66C U69C] the self-cleavage was 0.17. With UAACAGGGGGCCACAGCAGAAGCGUUCACGUCGCAGCCCCUGUCAGACUCUGGCGAAUCUGCGAAUUCAGCUGUAUAUCUC [U48C U54C U69A] the self-cleavage was 0.26. In the case of UAACAGGGGGCCACAGCAGAAGCGUUCACGUCGCAGCCCCUGUCAGACUCUGGUGAACCUGCGGAUUCUGCUGUAUACCUC [U48C U58C A64G U78C], the self-cleavage is reported as 0.08. In the case of UAACAGGGGGCCACAGCAGAAGCGUUCACGUCGCAGCCCCUGUCAGACUCUGGUGAACCUGCGAGCACUGCUGUAUAUCUC [U48C U58C A65G U66C U67A], the self-cleavage is reported as 0.09. UAACAGGGGGCCACAGCAGAAGCGUUCACGUCGCAGCCCCUGUCAGACUCUGGUGAACCUGCGAAUUCUGCUGUAUUUCUC [U48C U58C A77U] gave a self-cleavage of 0.31. Variant UAACAGGGGGCCACAGCAGAAGCGUUCACGUCGCAGCCCCUGUCAGACUCUGGUGAACCUGCGAAUUCUGGUGUAUAUCUC [U48C U58C C71G] has a self-cleavage of 0.08. UAACAGGGGGCCACAGCAGAAGCGUUCACGUCGCAGCCCCUGUCAGACUCUGGUGAACCUGCGAAUUCUGCCUUAUAACUC [U48C U58C U72C G73U U78A] showed a self-cleavage of 0.22. For UAACAGGGGGCCACAGCAGAAGCGUUCACGUCGCAGCCCCUGUCAGACUCUGGUGAAUCCGCGAAUUCUGCUAUAUAUCUC [U48C U60C G73A], the self-cleavage was 0.27. With UAACAGGGGGCCACAGCAGAAGCGUUCACGUCGCAGCCCCUGUCAGACUCUGGUGAAUCCGCGAACUCUGCUGUAAAUCUC [U48C U60C U66C U76A] the self-cleavage was 0.16. UAACAGGGGGCCACAGCAGAAGCGUUCACGUCGCAGCCCCUGUCAGACUCUGGUGAAUCGGCGAAUUCUGCAGUAUAUCUC [U48C U60G U72A] gave a self-cleavage of 0.15. Work on UAACAGGGGGCCACAGCAGAAGCGUUCACGUCGCAGCCCCUGUCAGACUCUGGUGAAUCUGCGAACUCUGCUGCAUAUCUC [U48C U66C U74C] yielded a self-cleavage of 0.33. In the case of UAACAGGGGGCCACAGCAGAAGCGUUCACGUCGCAGCCCCUGUCAGACUCUGGUGAAUCUGCGAACUCUGCUGUAAAUCUC [U48C U66C U76A], the self-cleavage is reported as 0.2. Work on UAACAGGGGGCCACAGCAGAAGCGUUCACGUCGCAGCCCCUGUCAGACUCUGGUGAAUCUGCGAAUCCUGCAGUACAUCUC [U48C U67C U72A U76C] yielded a self-cleavage of 0.06. For UAACAGGGGGCCACAGCAGAAGCGUUCACGUCGCAGCCCCUGUCAGACUCUGGUGAAUCUGCGAAUCCUGCUGUAUACCUC [U48C U67C U78C], the self-cleavage was 0.35. Variant UAACAGGGGGCCACAGCAGAAGCGUUCACGUCGCAGCCCCUGUCAGACUCUGGUGAAUCUGCGAAUUCAGCUGAAUAUCUC [U48C U69A U74A] has a self-cleavage of 0.15. In the case of UAACAGGGGGCCACAGCAGAAGCGUUCACGUCGCAGCCCCUGUCAGACUCUGGUGAAUCUGCGAAUUCUGCCGUAUAUAUC [U48C U72C C79A], the self-cleavage is reported as 0.53. UAACAGGGGGCCACAGCAGAAGCGUUCACGUCGCAGCCCCUGUCAGAUACUGGUGUAUCUGCGAAUUCUGCUGUAAAACUC [U49A A56U U76A U78A] showed a self-cleavage of 1.32. For UAACAGGGGGCCACAGCAGAAGCGUUCACGUCGCAGCCCCUGUCAGAUACUGGUGAAUCUGCGUAUCCUGCUGUAUAUCCC [U49A A64U U67C U80C], the self-cleavage was 0.2. Variant UAACAGGGGGCCACAGCAGAAGCGUUCACGUCGCAGCCCCUGUCAGAUACUGGUGAAUCUGCGAGUCCUGCUGUAUAUCUC [U49A A65G U67C] has a self-cleavage of 0.38. UAACAGGGGGCCACAGCAGAAGCGUUCACGUCGCAGCCCCUGUCAGAUACUGGUGAAUCUGCGAUCUCUGCUGUAUAUCUC [U49A A65U U66C] showed a self-cleavage of 0.08. Variant UAACAGGGGGCCACAGCAGAAGCGUUCACGUCGCAGCCCCUGUCAGAUACUGGUGAAUCUGCGAAUUCUGCUGUAUGUCAC [U49A A77G U80A] has a self-cleavage of 1.02. Variant UAACAGGGGGCCACAGCAGAAGCGUUCACGUCGCAGCCCCUGUCAGAUACAGGUGAAUCUGCGAAUUCUGCUGUAUAGCUC [U49A U51A U78G] has a self-cleavage of 0.3. In the case of UAACAGGGGGCCACAGCAGAAGCGUUCACGUCGCAGCCCCUGUCAGAUACAGGUGAAUCUGCGAAUUCUGCUGUAUAUCCC [U49A U51A U80C], the self-cleavage is reported as 0.6. In the case of UAACAGGGGGCCACAGCAGAAGCGUUCACGUCGCAGCCCCUGUCAGAUACCAGUGAAUCUGCGAAAUCUGCUGUAUAUCUC [U49A U51C G52A U66A], the self-cleavage is reported as 0.42. Variant UAACAGGGGGCCACAGCAGAAGCGUUCACGUCGCAGCCCCUGUCAGAUACUGGUGAACCUGCGAAUUCUGCCGUAUAUUUC [U49A U58C U72C C79U] has a self-cleavage of 0.25. UAACAGGGGGCCACAGCAGAAGCGUUCACGUCGCAGCCCCUGUCAGAUACUGGUGAAUCAGCGAAUUCUGCUGUAUAUCCC [U49A U60A U80C] gave a self-cleavage of 0.17. With UAACAGGGGGCCACAGCAGAAGCGUUCACGUCGCAGCCCCUGUCAGAUACUGGUGAAUCCGCGAAUUCUGCCGUAUAUCUC [U49A U60C U72C] the self-cleavage was 0.22. UAACAGGGGGCCACAGCAGAAGCGUUCACGUCGCAGCCCCUGUCAGAUACUGGUGAAUCUGCGAACUCUGCAGUAUAUCUC [U49A U66C U72A] showed a self-cleavage of 0.34. UAACAGGGGGCCACAGCAGAAGCGUUCACGUCGCAGCCCCUGUCAGAUCCUGGUGGAUCAGCGAAUUCAGCAGUAUAUCUC [U49C A56G U60A U69A U72A] showed a self-cleavage of 0.15. UAACAGGGGGCCACAGCAGAAGCGUUCACGUCGCAGCCCCUGUCAGAUCCUGGUGUAUCUGCGAAUUCUGCUGUAAAUCUC [U49C A56U U76A] gave a self-cleavage of 0.79. In the case of UAACAGGGGGCCACAGCAGAAGCGUUCACGUCGCAGCCCCUGUCAGAUCCUGGUGAGUCUGCGAAGUCUGCUGCAUAUCUC [U49C A57G U66G U74C], the self-cleavage is reported as 0.06. UAACAGGGGGCCACAGCAGAAGCGUUCACGUCGCAGCCCCUGUCAGAUCCUGGUGAAUCUGCGUACUCUGCCGUAUACCUC [U49C A64U U66C U72C U78C] showed a self-cleavage of 0.09. Work on UAACAGGGGGCCACAGCAGAAGCGUUCACGUCGCAGCCCCUGUCAGAUCCUGGUGAAUCUGCGAGUUCAGUCGUAUAUCUC [U49C A65G U69A C71U U72C] yielded a self-cleavage of 0.1. UAACAGGGGGCCACAGCAGAAGCGUUCACGUCGCAGCCCCUGUCAGAUCCUGGUGAAUAUGCGAAUUCUGCUGUAUAGCUC [U49C C59A U78G] gave a self-cleavage of 0.12.
